# According to a collection of fitness landscapes (doi:10.1016/j.celrep.2020.107928):
# In all, about 81,000 sequences were measured (“one-hybrid fitness for binding parS DNA”: median about -0.17, highest 2% from about 0.51 on). Some of the results follow.
# B1: Caulobacter ParB omega fusion; a variant is named by its letters at X, in order, B8GW30 (parent)
# chain: MESVVVGEPGMSEGRRGLGRGLSALLGEVDAAPAQAPGEQLGGSREAPIEILQRNPDQPRRTFREEDLEDLSNSIREKGVLQPILVRPSPDTAGEYQIVAGERAWRAAQRAGLKTVPIMVRELDDLAVLEIGIIENVQRADLNVLEEALSYKVLMEKFERTQENIAQTIGKSXSHVANXMRLLXLPDEVQSYLVSGELTAXHARAIAAAADPVALAKQIIEGGLSVRETEALARKAPNLSAGKSKGGRPPRVKDTDTQALESDLSSVLGLDVSIDHRGSTGTLTITYATLEQLDDLCNRLTRGI
# Variants of: B1
# Experiment: one-hybrid fitness for binding parS DNA (scaled: cognate 1, non-cognate 0); higher = stronger binding
# Conditions: with parS DNA site
# In short: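 In E. coli USO, a HIS3 reporter with its site placed 19 bp from the promoter was used to select Caulobacter ParB variants randomised at four specificity codons. Growth lasted 48 hours at 37°C on histidine-free M9 containing 0.1 mM IPTG and 5 mM 3-AT. Fitness was taken as the log change in variant-to-wild-type read ratio from Illumina sequencing of pre- and post-selection plasmids, rescaled between the non-cognate and cognate sites.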
row,Variant,one-hybrid fitness for binding parS DNA
1,NCGC,≤ 0.2
2,RRRM,0.762
3,QSLT,≤ 0.2
4,NWCR,≤ 0.2
5,HTQC,≤ 0.2
6,GYCG,≤ 0.2
7,SKKI,≤ 0.2
8,QKNK,≤ 0.2
9,MHSL,≤ 0.2
10,LSFM,≤ 0.2
11,DTAQ,≤ 0.2
12,PNNS,≤ 0.2
13,TRIS,≤ 0.2
14,RTRE,≤ 0.2
15,LWTG,≤ 0.2
16,KLPS,≤ 0.2
17,THFY,≤ 0.2
18,STSV,≤ 0.2
19,PRLY,≤ 0.2
20,VDCC,≤ 0.2
21,ALQV,≤ 0.2
22,VANC,≤ 0.2
23,WKHT,≤ 0.2

row,Variant,one-hybrid fitness for binding parS DNA
1,DQTT,≤ 0.2
2,NKNG,≤ 0.2
3,GINY,≤ 0.2
4,NCPE,≤ 0.2
5,FMSR,≤ 0.2
6,PIVK,≤ 0.2
7,AKSV,≤ 0.2
8,MSHS,≤ 0.2
9,APGM,≤ 0.2
10,CHKD,≤ 0.2
11,PEWT,≤ 0.2
12,RHDM,0.254
13,RQWK,≤ 0.2
14,WAYI,≤ 0.2
15,HYDG,≤ 0.2
16,VRHG,≤ 0.2
17,SPPD,≤ 0.2
18,KRHK,≤ 0.2
19,GRWE,≤ 0.2
20,WISC,≤ 0.2
21,RQRM,0.349
22,RITE,≤ 0.2
23,WEPW,≤ 0.2

row,Variant,one-hybrid fitness for binding parS DNA
1,NSML,≤ 0.2
2,RPCL,≤ 0.2
3,FRDK,≤ 0.2
4,RFIP,≤ 0.2
5,MEGG,≤ 0.2
6,RQTY,0.45
7,TYPI,≤ 0.2
8,LFMW,≤ 0.2
9,LPYL,≤ 0.2
10,QCQY,≤ 0.2
11,GAHA,≤ 0.2
12,LRLP,≤ 0.2
13,KDGW,≤ 0.2
14,SYSI,≤ 0.2
15,SKCS,≤ 0.2
16,VNPF,≤ 0.2
17,ISTK,≤ 0.2
18,LCPT,≤ 0.2
19,VTPP,≤ 0.2
20,HEKV,≤ 0.2
21,SDIT,≤ 0.2
22,MCFR,≤ 0.2
23,INYT,≤ 0.2

row,Variant,one-hybrid fitness for binding parS DNA
1,QHTQ,≤ 0.2
2,DPYH,≤ 0.2
3,QSPI,≤ 0.2
4,DIVS,≤ 0.2
5,RREH,≤ 0.2
6,NDYP,≤ 0.2
7,WWPD,≤ 0.2
8,MVQT,≤ 0.2
9,NYTI,≤ 0.2
10,YNRT,≤ 0.2
11,RERA,≤ 0.2
12,LLCE,≤ 0.2
13,PVKH,≤ 0.2
14,EFLA,≤ 0.2
15,PLKV,≤ 0.2
16,VKNS,≤ 0.2
17,WAPQ,≤ 0.2
18,AQSH,≤ 0.2
19,CFSS,≤ 0.2
20,RFWG,0.744
21,PNLG,≤ 0.2
22,EDAV,≤ 0.2
23,AMPV,≤ 0.2

row,Variant,one-hybrid fitness for binding parS DNA
1,PLQH,≤ 0.2
2,VVRM,≤ 0.2
3,PALR,≤ 0.2
4,AALS,≤ 0.2
5,EPWR,≤ 0.2
6,LTGT,≤ 0.2
7,SNRL,≤ 0.2
8,WQPV,≤ 0.2
9,PDAC,≤ 0.2
10,IVTL,≤ 0.2
11,DEKT,≤ 0.2
12,QTIR,≤ 0.2
13,DNPY,0.219
14,QAHS,≤ 0.2
15,NPSR,≤ 0.2
16,YGRR,≤ 0.2
17,QRCE,≤ 0.2
18,ALGF,≤ 0.2
19,TWAT,≤ 0.2
20,EDKG,≤ 0.2
21,CCES,≤ 0.2
22,TTPS,≤ 0.2
23,PSHE,≤ 0.2

row,Variant,one-hybrid fitness for binding parS DNA
1,MGHR,≤ 0.2
2,ARQT,≤ 0.2
3,GTCC,≤ 0.2
4,QCYW,≤ 0.2
5,VSHY,≤ 0.2
6,DRLC,≤ 0.2
7,RPKV,≤ 0.2
8,YAMC,≤ 0.2
9,ELAC,≤ 0.2
10,RMAA,0.59
11,YWSR,≤ 0.2
12,ATFT,≤ 0.2
13,ISAN,≤ 0.2
14,MLGP,≤ 0.2
15,YFKC,≤ 0.2
16,RCKY,0.716
17,AWLV,≤ 0.2
18,IVKK,≤ 0.2
19,ICYT,≤ 0.2
20,DAIR,≤ 0.2
21,FYPK,≤ 0.2
22,PAYK,≤ 0.2
23,RESA,≤ 0.2

row,Variant,one-hybrid fitness for binding parS DNA
1,SLMM,≤ 0.2
2,ARVW,≤ 0.2
3,GNHL,≤ 0.2
4,NGYI,≤ 0.2
5,LENG,≤ 0.2
6,CMPL,≤ 0.2
7,MRMS,≤ 0.2
8,YMLG,≤ 0.2
9,IPCT,≤ 0.2
10,QLRI,≤ 0.2
11,SSWR,≤ 0.2
12,PFKA,≤ 0.2
13,ANHT,≤ 0.2
14,PTQL,≤ 0.2
15,AWYS,≤ 0.2
16,CAVL,≤ 0.2
17,NNLS,≤ 0.2
18,AMYL,≤ 0.2
19,FRHL,≤ 0.2
20,TQQN,≤ 0.2
21,AAHM,≤ 0.2
22,DCEV,≤ 0.2
23,LWSG,≤ 0.2
